This assay concerns the target SARS-CoV-2 Spike glycoprotein Receptor Binding Domain (RBD) (Severe acute respiratory syndrome coronavirus 2, UniProt P0DTC2). Nature of the assay: Ligand binding to SARS-CoV-2 Spike glycoprotein Receptor Binding Domain (RBD) by BLI. The settings on record: biotinylated Spike RBD.
Where [1] appears, read: 1:1 global fit, read-out: Octet SARS-CoV-2 Spike RBD Protein Binding KD.
Setting [2] is: unit pM printed in cell, read-out: Octet SARS-CoV-2 Spike RBD Protein Binding KD (cell printed in pM).

The values that follow come from patent US20260306644A1, “ANTIBODY RECRUITING MOLECULES FOR THE TREATMENT OF CORONAVIRUS DISEASE-19” (priority 2023, published 2026).

Read-outs that look alike come from different tables or passages of the source. Positions of bridges follow the written chain, without caps; N, C: chain ends. Non-standard residues stand in square brackets, D forms with d. Residues, ends and D or L forms follow the SMILES beside them. No end group written: not given here. PEG8 = NCCOCCOCCOCCOCCOCCOCCOCCOCCC(=O)O; Tic = O=C(O)[C@@H]1Cc2ccccc2CN1; Aib = CC(C)(N)C(=O)O

Take “DKEWILQKIYEIMRLLDELGHAEASMRVSDLIYEFMKKGDERLLEEAERLLEEVEREAAAKEAAAKDCAWHLGELVWCT-NH2 (disulfide 68-78) [Compound 173]”: the Kd (in general, the constant that tells how readily two partners part at equilibrium) under setting [1] was determined as 552 pM.
Regarding `CCCC[C@H](NC(=O)[C@H](CCC(=O)O)NC(=O)[C@H](CC(=O)O)NC(=O)[C@H](CC(C)C)NC(=O)[C@H](CC(C)C)NC(=O)[C@H](CCCNC(=N)N)NC(=O)[C@H](CCSC)NC(=O)[C@@H](NC(=O)[C@H](CCC(=O)O)NC(=O)[C@H](Cc1ccc(O)cc1)NC(=O)[C@@H](NC(=O)[C@H](CCCCN)NC(=O)[C@H](CCC(N)=O)NC(=O)[C@H](CC(C)C)NC(=O)[C@@H](NC(=O)[C@H](Cc1c[nH]c2ccccc12)NC(=O)[C@H](CCC(=O)O)NC(=O)[C@H](CCCCN)NC(=O)[C@H](CC(=O)O)NC(C)=O)[C@@H](C)CC)[C@@H](C)CC)[C@@H](C)CC)C(=O)N[C@H](Cc1c[nH]cn1)C(=O)N[C@@H](Cc1c[nH]cn1)C(=O)N[C@@H](C)C(=O)N[C@@H](CCC(=O)O)C(=O)N[C@@H](C)C(=O)N[C@@H](CO)C(=O)N[C@@H](CCSC)C(=O)N[C@@H](CCCNC(=N)N)C(=O)N[C@H](C(=O)N[C@@H](CO)C(=O)N[C@@H](CC(=O)O)C(=O)N[C@@H](CC(C)C)C(=O)N[C@H](C(=O)N[C@@H](Cc1ccc(O)cc1)C(=O)N[C@@H](CCC(=O)O)C(=O)N[C@@H](Cc1ccccc1)C(=O)N[C@@H](CCSC)C(=O)N[C@@H](CCCCN)C(=O)N[C@@H](CCCCN)C(=O)NCC(=O)O)[C@@H](C)CC)C(C)C` [Compound 240], under setting [2], the Kd is less than 1 pM.
For “{CH2CO}-ASYHLGELVW[Tic][Aib]C[dE]ILQKIYEIMRLLDELGHAEASMRVSDLIYEFMKK (thioether N-13) [Compound 131]”, the “Octet SARS-CoV-2 Spike RBD Protein Binding KD” value (1:1 global fit) is recorded as “Weak Binding”.
For the compound `CC[C@H](C)[C@H](NC(=O)[C@H](Cc1c[nH]c2ccccc12)NC(=O)[C@H](CCC(=O)O)NC(=O)[C@H](CCCCN)NC(=O)[C@H](CC(=O)O)NC(C)=O)C(=O)N[C@@H](CC(C)C)C(=O)N[C@@H](CCC(N)=O)C(=O)N[C@@H](CCCCN)C(=O)N[C@H](C(=O)N[C@@H](Cc1ccc(O)cc1)C(=O)N[C@@H](CCC(=O)O)C(=O)N[C@H](C(=O)N[C@@H](CCSC)C(=O)N[C@@H](CCCNC(=N)N)C(=O)N[C@@H](CC(C)C)C(=O)N[C@@H](CC(C)C)C(=O)N[C@@H](CC(=O)O)C(=O)N[C@@H](CCC(=O)O)C(=O)N[C@@H](CC(C)C)C(=O)NCC(=O)NCCOCCOCCOCCOCCOCCOCCOCCOCCC(=O)O)[C@@H](C)CC)[C@@H](C)CC` [Compound 228] (Ac-DKEWILQKIYEIMRLLDELG[PEG8]-OH), where the note is “1:1 global fit”, the “Octet SARS-CoV-2 Spike RBD Protein Binding KD” value is listed as “No Binding”.
As to “Ac-DKEWILQKIYEIMRLLDELGHAEASMRVSDLIYEFMKKGGGGGGGGGDCAWHLGELVWCT (disulfide 49-59) [Compound 166]”, the Kd under setting [1] stood at 444 pM.
Consider `CC[C@H](C)[C@H](NC(=O)[C@H](Cc1c[nH]c2ccccc12)NC(=O)[C@H](CCC(=O)O)NC(=O)[C@H](CCCCN)NC(=O)[C@H](CC(=O)O)NC(C)=O)C(=O)N[C@@H](CC(C)C)C(=O)N[C@@H](CCC(N)=O)C(=O)N[C@@H](CCCCN)C(=O)N[C@H](C(=O)N[C@@H](Cc1ccc(O)cc1)C(=O)N[C@@H](CCC(=O)O)C(=O)N[C@H](C(=O)N[C@@H](CCSC)C(=O)N[C@@H](CCCNC(=N)N)C(=O)N[C@@H](CC(C)C)C(=O)N[C@@H](CC(C)C)C(=O)N[C@@H](CC(=O)O)C(=O)N[C@@H](CCC(=O)O)C(=O)N[C@@H](CC(C)C)C(=O)NCC(=O)NCCOCCOCCOCCOCCOCCOCCOCCOCCC(=O)NCCOCCOCCOCCOCCOCCOCCOCCOCCC(=O)N[C@@H](CC(=O)O)C(=O)N[C@H]1CSSC[C@@H](C(=O)N[C@H](C(N)=O)[C@@H](C)O)NC(=O)[C@H](Cc2c[nH]c3ccccc23)NC(=O)[C@H](C(C)C)NC(=O)[C@H](CC(C)C)NC(=O)[C@H](CCC(=O)O)NC(=O)CNC(=O)[C@H](CC(C)C)NC(=O)[C@H](Cc2c[nH]cn2)NC(=O)[C@H](Cc2c[nH]c3ccccc23)NC(=O)[C@H](C)NC1=O)[C@@H](C)CC)[C@@H](C)CC` [Compound 151], for which the “Octet SARS-CoV-2 Spike RBD Protein Binding KD” value (1:1 global fit) is listed as “Weak Binding”.
Take `CC[C@H](C)[C@H](NC(=O)[C@H](CC(C)C)NC(=O)[C@H](CC(=O)O)NC(=O)[C@H](CO)NC(=O)[C@@H](NC(=O)[C@H](CCCNC(=N)N)NC(=O)[C@H](CCSC)NC(=O)[C@H](CO)NC(=O)[C@H](C)NC(=O)[C@H](CCC(=O)O)NC(=O)[C@H](C)NC(=O)[C@H](Cc1c[nH]cn1)NC(=O)CNC(=O)[C@H](CC(C)C)NC(=O)[C@H](CCC(=O)O)NC(=O)[C@H](CC(=O)O)NC(=O)[C@H](CC(C)C)NC(=O)[C@H](CC(C)C)NC(=O)[C@H](CCCNC(=N)N)NC(=O)[C@H](CCSC)NC(=O)[C@@H](NC(=O)[C@H](CCC(=O)O)NC(=O)[C@H](Cc1ccc(O)cc1)NC(=O)[C@@H](NC(=O)[C@H](CCCCN)NC(=O)[C@H](CCC(N)=O)NC(=O)[C@H](CC(C)C)NC(=O)[C@@H](NC(=O)[C@H](Cc1c[nH]c2ccccc12)NC(=O)[C@H](CCC(=O)O)NC(=O)[C@H](CCCCN)NC(=O)[C@H](CC(=O)O)NC(C)=O)[C@@H](C)CC)[C@@H](C)CC)[C@@H](C)CC)C(C)C)C(=O)N[C@@H](Cc1ccc(O)cc1)C(=O)N[C@@H](CCC(=O)O)C(=O)N[C@@H](Cc1ccccc1)C(=O)N[C@@H](CCSC)C(=O)N[C@@H](CCCCN)C(=O)N[C@@H](CCCCN)C(=O)NCC(=O)NCCOCCOCCOCCOCCOCCOCCOCCOCCC(=O)NCCOCCOCCOCCOCCOCCOCCOCCOCCNC(=O)[C@@H]1CSCC(=O)N[C@@H](C)C(=O)N[C@@H](CO)C(=O)N[C@@H](Cc2ccc(O)cc2)C(=O)N[C@@H](Cc2c[nH]cn2)C(=O)N[C@@H](CC(C)C)C(=O)NCC(=O)N[C@@H](CCC(=O)O)C(=O)N[C@@H](CC(C)C)C(=O)N[C@@H](C(C)C)C(=O)N[C@@H](Cc2c[nH]c3ccccc23)C(=O)N2Cc3ccccc3C[C@H]2C(=O)NC(C)(C)C(=O)N1` [Compound 160]: under setting [2], the Kd is 1.2 pM.
With “Ac-AEASMRVSDLIYEFMKKGDERLLEEAERLLEEVER [Compound 234]”, the “Octet SARS-CoV-2 Spike RBD Protein Binding KD” value (1:1 global fit) was “No Binding”.
In the case of `CC[C@H](C)[C@H](NC(=O)[C@H](CC(C)C)NC(=O)[C@H](CC(=O)O)NC(=O)[C@H](CO)NC(=O)[C@@H](NC(=O)[C@H](CCCNC(=N)N)NC(=O)[C@H](CCSC)NC(=O)[C@H](CO)NC(=O)[C@H](C)NC(=O)[C@H](CCC(=O)O)NC(=O)[C@H](C)NC(=O)[C@H](Cc1c[nH]cn1)NC(=O)CNC(=O)[C@H](CC(C)C)NC(=O)[C@H](CCC(=O)O)NC(=O)[C@H](CC(=O)O)NC(=O)[C@H](CC(C)C)NC(=O)[C@H](CC(C)C)NC(=O)[C@H](CCCNC(=N)N)NC(=O)[C@H](CCSC)NC(=O)[C@@H](NC(=O)[C@H](CCC(=O)O)NC(=O)[C@H](Cc1ccc(O)cc1)NC(=O)[C@@H](NC(=O)[C@H](CCCCN)NC(=O)[C@H](CCC(N)=O)NC(=O)[C@H](CC(C)C)NC(=O)[C@@H](NC(=O)[C@H](Cc1c[nH]c2ccccc12)NC(=O)[C@H](CCC(=O)O)NC(=O)[C@H](CCCCN)NC(=O)[C@@H](N)CC(=O)O)[C@@H](C)CC)[C@@H](C)CC)[C@@H](C)CC)C(C)C)C(=O)N[C@@H](Cc1ccc(O)cc1)C(=O)N[C@@H](CCC(=O)O)C(=O)N[C@@H](Cc1ccccc1)C(=O)N[C@@H](CCSC)C(=O)N[C@@H](CCCCN)C(=O)N[C@@H](CCCCN)C(=O)NCC(=O)NCC(=O)NCC(=O)NCC(=O)N[C@@H](CC(=O)O)C(=O)N[C@H]1CSSC[C@@H](C(=O)N[C@H](C(=O)O)[C@@H](C)O)NC(=O)[C@H](Cc2c[nH]c3ccccc23)NC(=O)[C@H](C(C)C)NC(=O)[C@H](CC(C)C)NC(=O)[C@H](CCC(=O)O)NC(=O)CNC(=O)[C@H](CC(C)C)NC(=O)[C@H](Cc2c[nH]cn2)NC(=O)[C@H](Cc2c[nH]c3ccccc23)NC(=O)[C@H](C)NC1=O` [Compound 106], under setting [2], the equilibrium dissociation constant (Kd) was less than 1 pM.
As to “Ac-QKIYEIMRLCDELGHAEACMRVSDLIYEFMKKGDCAWHLGELVWCT-NH2 (disulfide 10-19, 35-45) [Compound 164]”, the “Octet SARS-CoV-2 Spike RBD Protein Binding KD” value (1:1 global fit) is recorded as “Weak Binding”.
For the compound `CC[C@H](C)[C@H](NC(=O)[C@H](CC(C)C)NC(=O)[C@H](CC(=O)O)NC(=O)[C@H](CO)NC(=O)[C@@H](NC(=O)[C@H](CCCNC(=N)N)NC(=O)[C@H](CCSC)NC(=O)[C@H](CO)NC(=O)[C@H](C)NC(=O)[C@H](CCC(=O)O)NC(=O)[C@H](C)NC(=O)[C@H](Cc1c[nH]cn1)NC(=O)CNC(=O)[C@H](CC(C)C)NC(=O)[C@H](CCC(=O)O)NC(=O)[C@H](CC(=O)O)NC(=O)[C@H](CC(C)C)NC(=O)[C@H](CC(C)C)NC(=O)[C@H](CCCNC(=N)N)NC(=O)[C@H](CCSC)NC(=O)[C@@H](NC(=O)[C@H](CCC(=O)O)NC(=O)[C@H](Cc1ccc(O)cc1)NC(=O)[C@@H](NC(=O)[C@H](CCCCN)NC(=O)[C@H](CCC(N)=O)NC(=O)[C@H](CC(C)C)NC(=O)[C@@H](NC(=O)[C@H](Cc1c[nH]c2ccccc12)NC(=O)[C@H](CCC(=O)O)NC(=O)[C@H](CCCCN)NC(=O)[C@H](CC(=O)O)NC(C)=O)[C@@H](C)CC)[C@@H](C)CC)[C@@H](C)CC)C(C)C)C(=O)N[C@@H](Cc1ccc(O)cc1)C(=O)N[C@@H](CCC(=O)O)C(=O)N[C@@H](Cc1ccccc1)C(=O)N[C@@H](CCSC)C(=O)N[C@@H](CCCCN)C(=O)N[C@@H](CCCCN)C(=O)NCC(=O)N[C@@H](CCC(N)=O)C(=O)N[C@@H](C)C(=O)N1CCC[C@H]1C(=O)N[C@@H](CC(=O)O)C(=O)N[C@H]1CSSC[C@@H](C(=O)N[C@H](C(=O)O)[C@@H](C)O)NC(=O)[C@H](Cc2c[nH]c3ccccc23)NC(=O)[C@H](C(C)C)NC(=O)[C@H](CC(C)C)NC(=O)[C@H](CCC(=O)O)NC(=O)CNC(=O)[C@H](CC(C)C)NC(=O)[C@H](Cc2c[nH]cn2)NC(=O)[C@H](Cc2c[nH]c3ccccc23)NC(=O)[C@H](C)NC1=O` [Compound 109], the Kd under setting [2] is less than 1 pM.
Take “Ac-EIMRLLDELGHAEASMRVSDLIYEFMKKGDERLLEEAERLLEEVER [Compound 235]”: the “Octet SARS-CoV-2 Spike RBD Protein Binding KD” value (1:1 global fit) is “No Binding”.
